About 340 (0.77%) of roughly 44,000 compounds were called active. Roughly 5% stayed inconclusive and do not appear here. The call rests on the fitted dose curve; in most records, active means well fitted inhibition curve with a large enough effect; inconclusive means small, poorly fitted or top-dose-only effect; inactive means flat fitted curve, though single readings scatter. The list shows a part of the results.
Experiment: Acumen qHTS Assay for Inhibitors of the mTORC1 Signaling Pathway in MEF (Tsc2-/-, p53-/-) Cells: Sytravon; further: nearly all actives have a fitted effect of over 50% in size;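 on activity change, negative = inhibition: plate controls were DMSO for no effect and rapamycin for full effect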
Settings: phospho-rpS6 immunofluorescence/PI, 24 h; series mostly up to 38.3 µM; activity change, negative = inhibition: at the top concentration
Method in brief: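 Plate MEFs (Tsc2-/-, p53-/-, empty vector) in DMEM/10% FBS; after 24 h add compound, incubate 24 h at 37 degree Celsius; fix in PFA/TX-100, block, stain phospho-rpS6 and 10 uM PI; scan at 488 nm; report % positive cells.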
Potency means the concentration at half of the fitted maximal effect.

Activity change, negative = inhibition, inactive:
Fc1cc(Br)ccc1Nc1c2c(nc3nc(-c4cccs4)nn13)CCCC2 0%, CC(NC(=O)c1ccccc1NC(=O)c1nsc2ccccc12)c1ccccc1 (stereo not drawn) -4.94%, COc1ccc(OC)c(CCNc2ncnc3onc(-c4ccc(F)cc4)c23)c1 -2.15%, COC(=O)c1ccc(OC)c(Cn2c(=O)n(Cc3ccccc3)c(=O)c3c2c2cc(OC)ccc2n3C)c1 -2.98%, CC(=O)c1ccc(NC(=O)C2=CC(c3ccc4c(c3)OCO4)=NS(=O)(=O)N2C)cc1 -3.6%, COc1ccc(-c2ccc(=O)n(CC(=O)Nc3ccc(C)cc3C)n2)cc1 0.651%, COc1ccc(-c2noc(CCC(=O)NCc3ccc(C)cc3)n2)cc1 -22%, O=c1n(Cc2cccc(C(F)(F)F)c2)c2ccccc2c2nc(-c3ccccc3)nn12 4.84%, Cc1ccc(-c2ccc(CCC(=O)O)n2-c2cccc(O)c2)cc1 -7.28%, Cc1ccc(CNC(=O)CCCCCn2c(=O)c3sccc3n(CC(=O)N(C)c3ccccc3)c2=O)cc1 -5.82%, Cc1ccc(C(=O)Nc2ccc3oc(-c4ccc(C(C)(C)C)cc4)nc3c2)cc1 -4.81%, CSc1nn(Cc2ccc(Cl)cc2)c(N(C(C)=O)C(C)=O)c1S(=O)(=O)c1ccccc1 -18.3%, CCc1ccc2oc(C(=O)Nc3cccc(C(F)(F)F)c3)cc(=O)c2c1 4.39%, Cc1ccc(NC(=O)c2cc(C)nc3c2c(C)nn3-c2cccc(Cl)c2C)c(C)c1 -0.203%, Cc1cccc(Cn2c(=O)n(CCc3ccccc3)c(=O)c3c(C)c(C)sc32)c1 0.298%, C#CCOc1ccc(-c2nnc(Nc3cccc(C)c3)c3ccccc23)cc1 -10.3%, Cc1ccc(NS(=O)(=O)c2ccc3[nH]c(=O)ccc3c2)cc1N(C)C -0.843%, CCn1cc(C(=O)NCc2ccccc2OC)c(=O)c2cc(S(=O)(=O)N3CCCCC3)ccc21 4.55%, CCn1c(=O)cc(SCC(=O)NCCc2ccc(Cl)cc2)c2ccccc21 -13.4%, CCOC(=O)C1CCC(CN(Cc2ccc(Cl)cc2)S(=O)(=O)c2ccc(F)c(C(=O)Nc3cccc(F)c3)c2)CC1 (stereo not drawn) 4.05%, COc1ccc(/C=C/C(=O)Nc2sc3c(c2C(N)=O)CCCC3)cc1 11%, CCOC(=O)c1cnc(NCc2ccccc2OC)c2ccccc12 -0.627%, COc1cccc2sc(=NC(=O)c3ccc(S(=O)(=O)N4CCCCC4)cc3)n(C)c12 -1.91%, COc1ccc(S(=O)(=O)N2CCCCC2)cc1C(=O)Nc1cccc(C(F)(F)F)c1 1.36%, COc1ccccc1Nc1cc(C(=O)NC2CCCC2)c2ccccc2n1 0.873%, CCN(CC)C(=O)c1sc2c(c1C)c(=O)n(Cc1ccccc1)c(=O)n2Cc1ccc(Cl)cc1 0.231%, O=C(CCS(=O)(=O)c1nc(-c2ccc3c(c2)OCO3)cc(C(F)(F)F)n1)Nc1ccccc1F -2.25%, CCN(C(=O)CCn1cnc2onc(-c3ccc(F)cc3)c2c1=O)c1ccc(OC)cc1 -0.705%, COc1ccc(Nc2nc3ccccc3c3nnc(C)n23)cc1Cl 2.79%, CCc1cccc(-n2nnc(-c3nc(-c4ccccc4Cl)no3)c2N)c1 -3.04%, Cc1ccc(NC(=O)CSc2cn(CC(=O)N3CCCCCC3)c3ccccc23)cc1 0.816%, Cc1cc(C)c(NC(=O)Cn2c(=O)n(Cc3ccco3)c(=O)c3ccc(C(=O)NC4CCCC4)cc32)c(C)c1 -6.7%, O=C(NCC(c1cccnc1)N1CCc2ccccc2C1)C(=O)Nc1ccc(Cl)cc1 (stereo not drawn) 3.36%, Cc1ccc(-c2noc(CSc3nnc(Cc4ccccc4)n3-c3cccc(C)c3)n2)cc1 -11.9%, Cn1nnc2c(NCCc3ccccc3)ncnc21 -17%, CC(C)c1ccc(NC(=O)c2cccc3c2C(=O)N(C2CCCCC2)C3)cc1 4.46%, CCCc1nc2ccccc2n2c(-c3ccc(C)cc3)c3c(=O)n(C)c(=O)n(C)c3c12 -0.584%, Cc1ccc2c(c1)N(CC(=O)NCc1ccccc1Br)C(=O)c1cccnc1O2 1.25%, CCOCCCNC(=O)C(c1ccc(C)cc1)N(Cc1cccs1)C(=O)c1ccc(NC(C)=O)cc1 (stereo not drawn) -1.93%, CC(=O)c1cccc(NC(=O)c2c(N3CCCC3=O)c3cc(F)ccc3n2C)c1 0%, COc1ccccc1NC(=O)c1c(NC(=O)c2ccco2)sc2c1CCC(C(C)(C)C)C2 (stereo not drawn) -8.73%, CCSc1ncc(Cl)c(C(=O)Nc2c(C(=O)c3ccc(C)c(F)c3)oc3ccccc23)n1 0%, COc1cc(/C=C(\C#N)C(=O)Nc2ccc(C)cc2)ccc1OCc1cc(=O)n2nc(C)sc2n1 -1.02%, CCc1cccc(NS(=O)(=O)c2c(C)nc3sc(CC)nn3c2=O)c1 -0.647%, COc1ccc(N2CC(NC(=O)c3cc4ccccc4o3)CC2=O)cc1OC (stereo not drawn) -2.16%, Cc1ccc(NC(=O)Cn2c(=O)n(CCc3ccccc3)c(=O)c3c4c(sc32)CCCC4)c(C)c1 -4.54%, CCOC(=O)c1cc(NC(=O)c2ccc(C)cc2)c(=O)n2c1oc1ccc(Cl)cc12 7.5%

Potency, active:
Cc1cccc(N2CCN(C(=O)c3cnn(-c4cccc(Cl)c4C)c3C3CCNCC3)CC2)c1C 16.5 µM

Source: PubChem BioAssay AID493208 (National Center for Advancing Translational Sciences (NCATS), 2011)
